Target: isolated recombinant JAK1 kinase domain (Homo sapiens (Human), UniProt P23458)
Settings: read-out: JAK1 Ki; isolated recombinant JAK1 kinase domain, 25 μM ATP

Row | SMILES | Ki [nM]
1 | CN1CCC(N(C)C(=O)c2ccc(Nc3nc4c(C5=CCN(CC#N)CC5)cccn4n3)cc2)CC1 [Example 2-52, 4-[[8-[1-(cyanomethyl)-3,6-dihydro-2H-pyridin-4-yl]-[1,2,4]triazolo[1,5-a]pyridin-2-yl]amino]-N-methyl-N-(1-methyl-4-piperidyl)benzamide] | 6.19
2 | COC1CC(C(=O)N2CC=C(c3cccn4nc(Nc5ccc(C(=O)N(C)C6CCN(C)CC6)cc5)nc34)CC2)C1 (stereo not shown) [Example 2-53, 4-[[8-[1-(3-methoxycyclobutanecarbonyl)-3,6-dihydro-2H-pyridin-4-yl]-[1,2,4]triazolo[1,5-a]pyridin-2-yl]amino]-N-methyl-N-(1-methyl-4-piperidyl)benzamide] | 15.3
3 | CN1CCC(N(C)C(=O)c2ccc(Nc3nc4c(C5=CCN(C(=O)CC(C)(C)C)CC5)cccn4n3)cc2)CC1 [Example 2-54, 4-[[8-[1-(3,3-dimethylbutanoyl)-3,6-dihydro-2H-pyridin-4-yl]-[1,2,4]triazolo[1,5-a]pyridin-2-yl]amino]-N-methyl-N-(1-methyl-4-piperidyl)benzamide] | 3.29
4 | CCOC(=O)N1CC=C(c2cccn3nc(Nc4ccc(C(=O)NCCCN5CCOCC5)cc4)nc23)CC1 [Example 2-56, ethyl 4-[2-[4-(3-morpholinopropylcarbamoyl)anilino]-[1,2,4]triazolo[1,5-a]pyridin-8-yl]-3,6-dihydro-2H-pyridine-1-carboxylate] | 1.42
5 | CCOC(=O)N1CC=C(c2cccn3nc(Nc4ccc(C(=O)NCCN5CCN(C)CC5)cc4)nc23)CC1 [Example 2-57, ethyl 4-[2-[4-[2-(4-methylpiperazin-1-yl)ethylcarbamoyl]anilino]-[1,2,4]triazolo[1,5-a]pyridin-8-yl]-3,6-dihydro-2H-pyridine-1-carboxylate] | 2.75
6 | CCOC(=O)N1CC=C(c2cccn3nc(Nc4ccc(C(=O)NC5CN(C)C5)cc4)nc23)CC1 [Example 2-58, ethyl 4-[2-[4-[(1-methylazetidin-3-yl)carbamoyl]anilino]-[1,2,4]triazolo[1,5-a]pyridin-8-yl]-3,6-dihydro-2H-pyridine-1-carboxylate] | 2.69
7 | CCOC(=O)N1CC=C(c2cccn3nc(Nc4ccc(C(=O)N(C)CCc5ccccn5)cc4)nc23)CC1 [Example 2-59, ethyl 4-[2-[4-[methyl-[2-(2-pyridyl)ethyl]carbamoyl]anilino]-[1,2,4]triazolo[1,5-a]pyridin-8-yl]-3,6-dihydro-2H-pyridine-1-carboxylate] | 2.39
8 | CCOC(=O)N1CC=C(c2cccn3nc(Nc4ccc(C(=O)NC5CCN(C)CC5)cc4)nc23)CC1 [Example 2-60, ethyl 4-[2-[4-[(1-methyl-4-piperidyl)carbamoyl]anilino]-[1,2,4]triazolo[1,5-a]pyridin-8-yl]-3,6-dihydro-2H-pyridine-1-carboxylate] | 1.29
9 | CCOC(=O)N1CC=C(c2cccn3nc(Nc4ccc(C(=O)N(C)CC5CCCN(C)C5)cc4)nc23)CC1 (stereo not shown) [Example 2-61, ethyl 4-[2-[4-[methyl-[(1-methyl-3-piperidyl)methyl]carbamoyl]anilino]-[1,2,4]triazolo[1,5-a]pyridin-8-yl]-3,6-dihydro-2H-pyridine-1-carboxylate] | 3.64
10 | CCOC(=O)N1CC=C(c2cccn3nc(Nc4ccc(C(=O)N5CCC(N6CC(C)OC(C)C6)CC5)cc4)nc23)CC1 (stereo not shown) [Example 2-63, ethyl 4-[2-[4-[4-(2,6-dimethylmorpholin-4-yl)piperidine-1-carbonyl]anilino]-[1,2,4]triazolo[1,5-a]pyridin-8-yl]-3,6-dihydro-2H-pyridine-1-carboxylate] | 2.84
11 | CCOC(=O)N1CC=C(c2cccn3nc(Nc4ccc(C(=O)N5CCN(CCN6CCOCC6)CC5)cc4)nc23)CC1 [Example 2-64, ethyl 4-[2-[4-[4-(2-morpholinoethyl)piperazine-1-carbonyl]anilino]-[1,2,4]triazolo[1,5-a]pyridin-8-yl]-3,6-dihydro-2H-pyridine-1-carboxylate] | 2.77
12 | CCOC(=O)N1CC=C(c2cccn3nc(Nc4ccc(C(=O)N(C)CC5CCN(C(C)C)C5)cc4)nc23)CC1 (stereo not shown) [Example 2-65, ethyl 4-[2-[4-[(1-isopropylpyrrolidin-3-yl)methyl-methyl-carbamoyl]anilino]-[1,2,4]triazolo[1,5-a]pyridin-8-yl]-3,6-dihydro-2H-pyridine-1-carboxylate] | 2.57
13 | CCOC(=O)N1CC=C(c2cccn3nc(Nc4ccc(C(=O)N5CCC(N6CCOCC6)C5)cc4)nc23)CC1 (stereo not shown) [Example 2-66, ethyl 4-[2-[4-(3-morpholinopyrrolidine-1-carbonyl)anilino]-[1,2,4]triazolo[1,5-a]pyridin-8-yl]-3,6-dihydro-2H-pyridine-1-carboxylate] | 2.41
14 | CCOC(=O)N1CC=C(c2cccn3nc(Nc4ccc(C(=O)N5CC6(CCN(C)C6)C5)cc4)nc23)CC1 [Example 2-68, ethyl 4-[2-[4-(7-methyl-2,7-diazaspiro[3.4]octane-2-carbonyl)anilino]-[1,2,4]triazolo[1,5-a]pyridin-8-yl]-3,6-dihydro-2H-pyridine-1-carboxylate] | 1.12
15 | CCOC(=O)N1CC=C(c2cccn3nc(Nc4ccc(C(=O)N[C@H]5CN6CCC5CC6)cc4)nc23)CC1 [Example 2-69, ethyl 4-[2-[4-[[(3R)-quinuclidin-3-yl]carbamoyl]anilino]-[1,2,4]triazolo[1,5-a]pyridin-8-yl]-3,6-dihydro-2H-pyridine-1-carboxylate] | 4.1
16 | CCOC(=O)N1CC=C(c2cccn3nc(Nc4ccc(C(=O)N5CC6CC5(CN)C6)cc4)nc23)CC1 [Example 2-71, ethyl 4-[2-[4-[4-(aminomethyl)-3-azabicyclo[2.1.1]hexane-3-carbonyl]anilino]-[1,2,4]triazolo[1,5-a]pyridin-8-yl]-3,6-dihydro-2H-pyridine-1-carboxylate] | 6.04
17 | CCOC(=O)N1CC=C(c2cccn3nc(Nc4ccc(C(=O)N5CCC6(CCNC6)C5)cc4)nc23)CC1 (stereo not shown) [Example 2-78, ethyl 4-[2-[4-(2,7-diazaspiro[4.4]nonane-2-carbonyl)anilino]-[1,2,4]triazolo[1,5-a]pyridin-8-yl]-3,6-dihydro-2H-pyridine-1-carboxylate] | 1.36
18 | CCOC(=O)N1CC=C(c2cccn3nc(Nc4ccc(C(=O)N5CCC6(CCNCC6)C5)cc4)nc23)CC1 [Example 2-79, ethyl 4-[2-[4-(2,8-diazaspiro[4.5]decane-2-carbonyl)anilino]-[1,2,4]triazolo[1,5-a]pyridin-8-yl]-3,6-dihydro-2H-pyridine-1-carboxylate] | 2.8

The next lines start with the values.

Row | Ki [nM] | SMILES
19 | 1.21 | Cc1ccc(C2CCCN(C(=O)c3ccc(Nc4nc5c(C6=CCN(C(=O)CCC(F)(F)F)CC6)cccn5n4)cc3)C2)nc1 (stereo not shown) [Example 2-50, 4,4,4-tri fluoro-1-[4-[2-[4-[3-(5-methyl-2-pyridyl)piperidine-1-carbonyl]anilino]-[1,2,4]triazolo[1,5-a]pyridin-8-yl]-3,6-dihydro-2H-pyridin-1-yl]butan-1-one]
20 | 1.75 | CCOC(=O)N1CC=C(c2cccn3nc(Nc4ccc(C(=O)N5CC(NC)C5)cc4)nc23)CC1 [Example 2-55, Ethyl 4-[2-[4-[3-(methylamino)azetidine-1-carbonyl]anilino]-[1,2,4]triazolo[1,5-a]pyridin-8-yl]-3,6-dihydro-2H-pyridine-1-carboxylate]
21 | 1.09 | CCOC(=O)N1CC=C(c2cccn3nc(Nc4ccc(C(=O)N5CCC(c6ccncc6)C5)cc4)nc23)CC1 (stereo not shown) [Example 2-62, ethyl 4-[2-[4-[3-(4-pyridyl)pyrrolidine-1-carbonyl]anilino]-[1,2,4]triazolo[1,5-a]pyridin-8-yl]-3,6-dihydro-2H-pyridine-1-carboxylate]
22 | 2.94 | CCOC(=O)N1CC=C(c2cccn3nc(Nc4ccc(C(=O)N5CCCC5c5ccc(C)cn5)cc4)nc23)CC1 (stereo not shown) [Example 2-67, ethyl 4-[2-[4-[2-(5-methyl-2-pyridyl)pyrrolidine-1-carbonyl]anilino]-[1,2,4]triazolo[1,5-a]pyridin-8-yl]-3,6-dihydro-2H-pyridine-1-carboxylate]
23 | 1.94 | CCOC(=O)N1CC=C(c2cccn3nc(Nc4ccc(C(=O)N5Cc6cccnc6C5)cc4)nc23)CC1 [Example 2-70, ethyl 4-[2-[4-(5,7-dihydropyrrolo[3,4-b]pyridine-6-carbonyl)anilino]-[1,2,4]triazolo[1,5-a]pyridin-8-yl]-3,6-dihydro-2H-pyridine-1-carboxylate]
24 | 2.58 | CCOC(=O)N1CC=C(c2cccn3nc(Nc4ccc(C(=O)N5C[C@@H]6C[C@]6(N)C5)cc4)nc23)CC1 [Example 2-73, ethyl 4-[2-[4-[(1S,5R)-5-amino-3-azabicyclo[3.1.0]hexane-3-carbonyl]anilino]-[1,2,4]triazolo[1,5-a]pyridin-8-yl]-3,6-dihydro-2H-pyridine-1-carboxylate]
25 | 0.82 | CCOC(=O)N1CC=C(c2cccn3nc(Nc4ccc(C(=O)N5CC(N)C5)cc4)nc23)CC1 [Example 2-74, ethyl 4-[2-[4-(3-aminoazetidine-1-carbonyl)anilino]-[1,2,4]triazolo[1,5-a]pyridin-8-yl]-3,6-dihydro-2H-pyridine-1-carboxylate]
26 | 8.93 | CCOC(=O)N1CC=C(c2cccn3nc(Nc4ccc(C(=O)N5CCCC6(CCNCC6)C5)cc4)nc23)CC1 [Example 2-75, ethyl 4-[2-[4-(2,9-diazaspiro[5.5]undecane-2-carbonyl)anilino]-[1,2,4]triazolo[1,5-a]pyridin-8-yl]-3,6-dihydro-2H-pyridine-1-carboxylate]
27 | 5.08 | CCOC(=O)N1CC=C(c2cccn3nc(Nc4ccc(C(=O)N5CCCC5CN)cc4)nc23)CC1 (stereo not shown) [Example 2-76, ethyl 4-[2-[4-[2-(aminomethyl)pyrrolidine-1-carbonyl]anilino]-[1,2,4]triazolo[1,5-a]pyridin-8-yl]-3,6-dihydro-2H-pyridine-1-carboxylate]
28 | 0.72 | CCOC(=O)N1CC=C(c2cccn3nc(Nc4ccc(C(=O)N5CC6(CNC6)C5)cc4)nc23)CC1 [Example 2-77, ethyl 4-[2-[4-(2,6-diazaspiro[3.3]heptane-2-carbonyl)anilino]-[1,2,4]triazolo[1,5-a]pyridin-8-yl]-3,6-dihydro-2H-pyridine-1-carboxylate]

Source: patent US9873709B2 (priority 2013, dated 2018)
